Test results from publication PMC7336368 (Nature cell biology, 2020).

Experiments:
[1] = target: T1, TRIP13 (purified, tags cleaved) (UniProt Q15645 1-432); assay: pull-down
T1 sequence (looked up): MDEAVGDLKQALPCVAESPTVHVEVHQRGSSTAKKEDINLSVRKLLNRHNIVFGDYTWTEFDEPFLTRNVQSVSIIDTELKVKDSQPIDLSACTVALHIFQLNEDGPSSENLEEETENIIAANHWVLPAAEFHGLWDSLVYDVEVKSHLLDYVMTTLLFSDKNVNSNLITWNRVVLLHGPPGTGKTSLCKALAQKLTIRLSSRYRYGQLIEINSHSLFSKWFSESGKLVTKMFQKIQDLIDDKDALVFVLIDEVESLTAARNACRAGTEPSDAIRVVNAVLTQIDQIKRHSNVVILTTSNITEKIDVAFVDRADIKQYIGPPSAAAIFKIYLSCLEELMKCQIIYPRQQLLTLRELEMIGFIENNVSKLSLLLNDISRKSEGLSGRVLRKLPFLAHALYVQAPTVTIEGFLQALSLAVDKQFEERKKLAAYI

GST-SHLD3 = target: T2, GST-SHLD3 (human, UniProt Q6ZNX1 1-250); assay: pull-down
T2 sequence (looked up): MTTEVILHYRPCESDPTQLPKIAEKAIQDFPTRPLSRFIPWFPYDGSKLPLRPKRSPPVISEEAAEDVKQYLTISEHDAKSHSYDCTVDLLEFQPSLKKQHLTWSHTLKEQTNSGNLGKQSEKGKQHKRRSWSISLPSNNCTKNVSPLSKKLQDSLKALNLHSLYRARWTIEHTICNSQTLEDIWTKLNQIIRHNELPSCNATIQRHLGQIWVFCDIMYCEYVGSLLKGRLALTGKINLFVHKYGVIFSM

binding result [1]: binds
binding result (GST-SHLD3): binds
B1: REV7^R124A (His-tagged, purified from E. coli) (natural protein)
chain: not shown
